Measurements as given in the antibiotic and cytotoxicity screens of Wong et al. (2023).
The list shows a part of the results.

Legend:
[1] = tested on: HSkMC (human skeletal muscle cells); experiment: cytotoxicity call (relative viability < 0.9); settings: 10 µM
[2] = tested on: HepG2; experiment: cytotoxicity call (relative viability < 0.9); settings: 10 µM
[3] = tested on: S. aureus RN4220; experiment: growth inhibition call (relative growth <= 0.2); settings: 50 µM

Compound: Cc1ccc(C(=O)c2ccc(CC(=O)[O-])n2C)cc1.[Na+]
- cytotoxicity call [1]: inactive
- cytotoxicity call [2]: inactive
- growth inhibition call [3]: inactive

Compound: C[C@H](CO)N1C[C@H](C)[C@H](CN(C)S(=O)(=O)c2cccs2)Oc2ncc(-c3ccccc3)cc2C1=O
- cytotoxicity call [1]: inactive
- cytotoxicity call [2]: inactive
- growth inhibition call [3]: inactive

Compound: O=C(C[C@@H]1C=C[C@@H](NS(=O)(=O)c2ccc(F)cc2)[C@@H](CO)O1)NCc1ccc(Cl)c(Cl)c1
- cytotoxicity call [1]: inactive
- cytotoxicity call [2]: inactive
- growth inhibition call [3]: inactive

Compound: C[C@H]1Cc2cc(S(=O)(=O)N(C)CC(=O)N3CCOCC3)ccc2N1C(=O)C1CC1
- cytotoxicity call [1]: inactive
- cytotoxicity call [2]: inactive
- growth inhibition call [3]: inactive

Compound: COc1ccc(NC(=O)Nc2ccc3c(c2)C(=O)N([C@H](C)CO)C[C@@H](C)[C@H](CN(C)S(=O)(=O)c2cccs2)OCCCC[C@@H](C)O3)cc1
- cytotoxicity call [1]: inactive
- cytotoxicity call [2]: inactive
- growth inhibition call [3]: inactive

Compound: Nc1cc(C(Cl)=C(Cl)Cl)c(S(N)(=O)=O)cc1S(N)(=O)=O
- cytotoxicity call [1]: inactive
- cytotoxicity call [2]: inactive
- growth inhibition call [3]: inactive

Compound: CN(C)CCCNC(=O)C[C@@H]1CC[C@H]2[C@@H](COC[C@@H](O)CN2S(=O)(=O)c2ccccc2)O1
- cytotoxicity call [1]: inactive
- cytotoxicity call [2]: inactive
- growth inhibition call [3]: inactive

Compound: C[C@H](CO)N1C[C@H](C)[C@@H](CN(C)S(=O)(=O)c2ccc(Cl)cc2)Oc2c(NC(=O)c3cnccn3)cccc2C1=O
- cytotoxicity call [1]: inactive
- cytotoxicity call [2]: inactive
- growth inhibition call [3]: inactive

Compound: C(=N\c1nnc2nc[nH]n12)/c1ccco1
- cytotoxicity call [1]: inactive
- cytotoxicity call [2]: inactive
- growth inhibition call [3]: inactive

Compound: C[C@H](CO)N1C[C@H](C)[C@H](CN(C)C(=O)Nc2ccccc2)Oc2cc(C#C[C@@H](C)O)ccc2S1(=O)=O
- cytotoxicity call [1]: inactive
- cytotoxicity call [2]: inactive
- growth inhibition call [3]: inactive

Compound: C1N2CN3CN1CN(C2)C3
- cytotoxicity call [1]: inactive
- growth inhibition call [3]: inactive
